# The list shows a part of the results.
# B1: MGL6A (Homo sapiens) (protein)
# chain: MTRTYENFQYLENKVKVQGFKNGPLPLQSLLQRLCSGPCHLLLSLGLGLLLLVIICVVGFQNSKFQRDLVTLRTDFSNFTSNTVAEIQALTSQGSSLEETIASLKAEVEGFKQERQAVHSEMLLRVQQLVQDLKKLTCQVATLNNNGEEASTEGTCCPVNWVEHQDSCYWFSHSGMSWAEAEKYCQLKNAHLVVINSREEQNFVQKYLGSAYTWMGLSDPEGAWKWVDGTDYATGFQNWKPGQPDDWQGHGLGGGEDCAHFHPDGRWNDDVCQRPYHWVCEAGLGQTSQESH
# Key:
# Experiment in all cases: glycan array binding signal (z-score within array); higher = stronger binding
# Settings in all cases: glycan notation: IUPAC condensed, linker removed
# Fuc(a1-2)Gal = target: Fuc(a1-2)Gal
# Method in brief: (§1)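 Columns mapping to the same glycan were averaged after glycan names were converted to IUPAC-condensed notation. The data come from 3228 arrays in the Consortium for Functional Glycomics database, limited to those with an available protein sequence. Binding is reported as a within-array Z-score averaged across arrays of one protein sequence and across linkers.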
# Fuc(a1-2)Gal(b1-3)GalNAc = target: Fuc(a1-2)Gal(b1-3)GalNAc
# Method in brief: as §1
# [1] = target: Fuc(a1-2)Gal(b1-3)GalNAc(a1-3)[Fuc(a1-2)]Gal(b1-4)Glc
# Method in brief: as §1
# [2] = target: Fuc(a1-2)Gal(b1-3)GalNAc(a1-3)[Fuc(a1-2)]Gal(b1-4)GlcNAc
# Method in brief: as §1
# [3] = target: Fuc(a1-2)Gal(b1-3)GalNAc(b1-3)Gal
# Method in brief: as §1
# [4] = target: Fuc(a1-2)Gal(b1-3)GalNAc(b1-3)Gal(a1-4)Gal(b1-4)Glc
# Method in brief: as §1
# [5] = target: Fuc(a1-2)Gal(b1-3)GalNAc(b1-4)[Neu5Ac(a2-3)]Gal(b1-4)Glc
# Method in brief: as §1
# Fuc(a1-2)Gal(b1-3)GlcNAc = target: Fuc(a1-2)Gal(b1-3)GlcNAc
# Method in brief: as §1
# [6] = target: Fuc(a1-2)Gal(b1-3)GlcNAc(b1-2)Man(a1-3)[Fuc(a1-2)Gal(b1-3)GlcNAc(b1-2)Man(a1-6)]Man(b1-4)GlcNAc(b1-4)GlcNAc
# Method in brief: as §1
# [7] = target: Fuc(a1-2)Gal(b1-3)GlcNAc(b1-2)Man(a1-3)[Fuc(a1-2)Gal(b1-3)GlcNAc(b1-2)Man(a1-6)]Man(b1-4)GlcNAc(b1-4)[Fuc(a1-6)]GlcNAc
# Method in brief: as §1
# [8] = target: Fuc(a1-2)Gal(b1-3)GlcNAc(b1-3)Gal(b1-4)Glc
# Method in brief: as §1
# [9] = target: Fuc(a1-2)Gal(b1-3)GlcNAc(b1-3)GalNAc
# Method in brief: as §1
# [10] = target: Fuc(a1-2)Gal(b1-3)GlcNAc(b1-3)[Fuc(a1-2)Gal(b1-3)GlcNAc(b1-6)]GalNAc
# Method in brief: as §1
# [11] = target: Fuc(a1-2)Gal(b1-3)GlcNAc(b1-3)[Gal(b1-4)GlcNAc(b1-6)]Gal(b1-4)Glc
# Method in brief: as §1
# [12] = target: Fuc(a1-2)Gal(b1-3)GlcNAc(b1-3)[Gal(b1-4)[Fuc(a1-3)]GlcNAc(b1-6)]Gal(b1-4)Glc
# Method in brief: as §1
# [13] = target: Fuc(a1-2)Gal(b1-3)GlcNAc(b1-3)[Neu5Ac(a2-6)Gal(b1-4)GlcNAc(b1-6)]Gal(b1-4)Glc
# Method in brief: as §1
# [14] = target: Fuc(a1-2)Gal(b1-3)GlcNAc6S
# Method in brief: as §1
# [15] = target: Fuc(a1-2)Gal(b1-3)[Fuc(a1-4)]GlcNAc
# Method in brief: as §1
# [16] = target: Fuc(a1-2)Gal(b1-3)[Fuc(a1-4)]GlcNAc(b1-2)Man(a1-3)[Fuc(a1-2)Gal(b1-3)[Fuc(a1-4)]GlcNAc(b1-2)Man(a1-3)]Man(b1-4)GlcNAc(b1-4)GlcNAc
# Method in brief: as §1
# [17] = target: Fuc(a1-2)Gal(b1-3)[Fuc(a1-4)]GlcNAc(b1-2)Man(a1-3)[Fuc(a1-2)Gal(b1-3)[Fuc(a1-4)]GlcNAc(b1-2)Man(a1-6)]Man(b1-4)GlcNAc(b1-4)GlcNAc
# Method in brief: as §1
# [18] = target: Fuc(a1-2)Gal(b1-3)[Fuc(a1-4)]GlcNAc(b1-2)Man(a1-3)[Fuc(a1-2)Gal(b1-3)[Fuc(a1-4)]GlcNAc(b1-2)Man(a1-6)]Man(b1-4)GlcNAc(b1-4)[Fuc(a1-6)]GlcNAc(b1-4)[Fuc(a1-6)]GlcNAc
# Method in brief: as §1
# [19] = target: Fuc(a1-2)Gal(b1-3)[Fuc(a1-4)]GlcNAc(b1-3)[Fuc(a1-3)[Gal(b1-4)]GlcNAc(b1-6)]Gal(b1-4)Glc
# Method in brief: as §1
# [20] = target: Fuc(a1-2)Gal(b1-3)[Fuc(a1-4)]GlcNAc(b1-3)[Gal(b1-4)GlcNAc(b1-6)]Gal(b1-4)Glc
# Method in brief: as §1
# [21] = target: Fuc(a1-2)Gal(b1-4)Fuc(a1-3)]GlcNAc(b1-2)Man(a1-3)[Fuc(a1-2)Gal(b1-4)[Fuc(a1-3)]GlcNAc(b1-2)Man(a1-6)]Man(b1-4)GlcNAc(b1-4)GlcNAc
# Method in brief: as §1
# Fuc(a1-2)Gal(b1-4)Glc = target: Fuc(a1-2)Gal(b1-4)Glc
# Method in brief: as §1
# Fuc(a1-2)Gal(b1-4)Glc6S = target: Fuc(a1-2)Gal(b1-4)Glc6S
# Method in brief: as §1
# Fuc(a1-2)Gal(b1-4)GlcNAc = target: Fuc(a1-2)Gal(b1-4)GlcNAc
# Method in brief: as §1
# [22] = target: Fuc(a1-2)Gal(b1-4)GlcNAc(b1-2)Man
# Method in brief: as §1
# [23] = target: Fuc(a1-2)Gal(b1-4)GlcNAc(b1-2)Man(a1-3)[Fuc(a1-2)Gal(b1-4)GlcNAc(b1-2)Man(a1-6)]Man(b1-4)GlcNAc(b1-4)GlcNAc
# Method in brief: as §1
# [24] = target: Fuc(a1-2)Gal(b1-4)GlcNAc(b1-2)Man(a1-3)[Fuc(a1-2)Gal(b1-4)GlcNAc(b1-2)Man(a1-6)]Man(b1-4)GlcNAc(b1-4)[Fuc(a1-6)]GlcNAc
# Method in brief: as §1
# [25] = target: Fuc(a1-2)Gal(b1-4)GlcNAc(b1-2)[Fuc(a1-2)Gal(b1-4)GlcNAc(b1-4)]Man(a1-3)[Fuc(a1-2)Gal(b1-4)GlcNAc(b1-2)Man(a1-6)]Man(b1-4)GlcNAc(b1-4)GlcNAc
# Method in brief: as §1
# [26] = target: Fuc(a1-2)Gal(b1-4)GlcNAc(b1-3)Gal(b1-4)GlcNAc
# Method in brief: as §1
# [27] = target: Fuc(a1-2)Gal(b1-4)GlcNAc(b1-3)Gal(b1-4)GlcNAc(b1-2)Man(a1-3)[Fuc(a1-2)Gal(b1-4)GlcNAc(b1-3)Gal(b1-4)GlcNAc(b1-2)Man(a1-6)]Man(b1-4)GlcNAc(b1-4)GlcNAc
# Method in brief: as §1
# [28] = target: Fuc(a1-2)Gal(b1-4)GlcNAc(b1-3)Gal(b1-4)GlcNAc(b1-3)Gal(b1-4)GlcNAc
# Method in brief: as §1
# [29] = target: Fuc(a1-2)Gal(b1-4)GlcNAc(b1-3)GalNAc
# Method in brief: as §1
# [30] = target: Fuc(a1-2)Gal(b1-4)GlcNAc(b1-3)[Fuc(a1-2)Gal(b1-4)GlcNAc(b1-6)]GalNAc
# Method in brief: as §1
# [31] = target: Fuc(a1-2)Gal(b1-4)GlcNAc(b1-3)[Fuc(a1-3)[Gal(b1-4)]GlcNAc(b1-6)]Gal(b1-4)Glc
# Method in brief: as §1
binder,measurement,setting,value
B1,glycan array binding signal (z-score),Fuc(a1-2)Gal,-0.271
same,glycan array binding signal (z-score),Fuc(a1-2)Gal(b1-3)GalNAc,-0.261
same,glycan array binding signal (z-score),[1],-0.26
same,glycan array binding signal (z-score),[2],-0.255
same,glycan array binding signal (z-score),[3],-0.257
same,glycan array binding signal (z-score),[4],-0.268
same,glycan array binding signal (z-score),[5],-0.086
same,glycan array binding signal (z-score),Fuc(a1-2)Gal(b1-3)GlcNAc,-0.275
same,glycan array binding signal (z-score),[6],-0.209
same,glycan array binding signal (z-score),[7],-0.246
same,glycan array binding signal (z-score),[8],-0.285
same,glycan array binding signal (z-score),[9],-0.261
same,glycan array binding signal (z-score),[10],-0.208
same,glycan array binding signal (z-score),[11],-0.266
same,glycan array binding signal (z-score),[12],-0.403
same,glycan array binding signal (z-score),[13],-0.281
same,glycan array binding signal (z-score),[14],-0.198
same,glycan array binding signal (z-score),[15],-0.287
same,glycan array binding signal (z-score),[16],-0.244
same,glycan array binding signal (z-score),[17],0.106
same,glycan array binding signal (z-score),[18],-0.257
same,glycan array binding signal (z-score),[19],-0.231
same,glycan array binding signal (z-score),[20],-0.263
same,glycan array binding signal (z-score),[21],-0.231
same,glycan array binding signal (z-score),Fuc(a1-2)Gal(b1-4)Glc,-0.282
same,glycan array binding signal (z-score),Fuc(a1-2)Gal(b1-4)Glc6S,-0.249
same,glycan array binding signal (z-score),Fuc(a1-2)Gal(b1-4)GlcNAc,-0.112
same,glycan array binding signal (z-score),[22],-0.276
same,glycan array binding signal (z-score),[23],-0.192
same,glycan array binding signal (z-score),[24],-0.241
same,glycan array binding signal (z-score),[25],-0.289
same,glycan array binding signal (z-score),[26],-0.305
same,glycan array binding signal (z-score),[27],-0.249
same,glycan array binding signal (z-score),[28],-0.248
same,glycan array binding signal (z-score),[29],-0.268
same,glycan array binding signal (z-score),[30],-0.233
same,glycan array binding signal (z-score),[31],-0.227

# From the supplement of paper PMC8728848
